According to the supplement of paper PMC3334620:
Over roughly 33,000 sequences, “E-score (-0.5 to 0.5)” has its median near -0.016; the highest 2% begin near 0.31. Some of the results follow.

Each sequence was assayed against Cst6 (UniProt P40535) (assay: PBM E-score (8-mer binding enrichment) (E-score (-0.5 to 0.5)); higher = stronger / more preferred TF binding; most listed sequences are background and not binding sites). Settings: protein concentration: 200 nM; construct: GST-DNA-binding domain.
Procedure, shortened: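 Each ungapped eight-base word and its reverse complement, pooled, received an E-score from the Universal PBM Analysis Suite. Underlying scans, normalised with masliner, recorded fluorescent anti-GST bound to GST-tagged yeast transcription factors. These were applied at about 100-200 nM to universal all-10-mer Agilent arrays double-stranded by primer extension.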

Sequence	PBM E-score
GAGGGTAC	-0.281
AGGTGATC	0.167
ACGTCCAT	0.169
ACTTCCGG	-0.117
CAGCGGTC	-0.259
AAGGGAGC	-0.353
ACCTGAAA	0.12
AAGCATGT	-0.00536
GATAAAGC	0.0878
CCCAGTCA	-0.272
CCGGATCC	-0.199
ACCTGACA	0.0839
GGGTGTAC	-0.185
ATTACTGG	-0.0944
ACTATGTG	-0.00983
GTAGTCGA	0.002
AGTACATG	0.0645
CCGGATGA	-0.0384
AAGCGTGA	0.141
AGCAAGCC	-0.257
CCTCGACC	-0.19
CTCAGCGA	-0.0409
CCACCCGG	-0.285
AACAAACT	0.187
ACTCAAAG	-0.0697

Sequence	PBM E-score
CAAACGAA	0.137
AGTGGTCA	-0.0545
ATGAGGTC	0.256
CTAGTGGC	-0.0665
AACAGGTA	0.0818
AATAGGCC	-0.161
AGACAAAC	0.0468
CGTCGAAC	-0.0518
CTTTAATA	0.201
ACATGCAG	-0.0347
CTACCGAG	-0.164
ACTGTTTC	-0.021
AGCCCGAC	-0.167
ACCTATCT	-0.113
GACCCCTA	-0.235
GATCGAGC	-0.0261
CCCACGTC	0.141
GACAAAGC	0.0196
AATGAGGG	-0.17
CTTGCACA	-0.0381
CGCGGCAG	0.123
AGAGCCAT	-0.0246
GCCAGTCC	-0.307
AGACCCCG	-0.234
CTGCACTC	-0.132

Sequence	PBM E-score
CAGTTCCG	-0.259
AAATTTGG	0.0727
ATAAGCGC	0.0378
ATGAGTCC	-0.159
ACTGTCCA	-0.172
CCAAGACG	-0.0335
CTTGTCGA	-0.117
AGCTGGTC	-0.206
AACCTATA	0.152
CGTCTAAG	0.0362
GTTGTCTA	-0.0559
ATCGACAG	0.117
CACACAGA	0.0233
AGCCTAAG	-0.146
TATCGATA	-0.0701
ACCTGGAT	-0.315
GGAGTAGA	-0.0383
ACGCGTAT	0.175
CGATGCGC	0.00895
CGTAAAAG	0.196
AACGATAT	0.266
CAACTCAA	0.0831
CTGAGGCA	0.0318
AAAATCGA	0.106
GCGTCTGA	-0.0724

Sequence	PBM E-score
AAAATCCG	0.0885
ATACTATA	0.0901
GTTAGTCA	0.0776
CACGCAAG	0.092
ACTGCACC	-0.125
CGGGGACA	-0.237
ATGATGGG	-0.078
AGTGCCGG	-0.116
AACCGTGT	-0.0417
ACGAGACG	-0.087
GTTTGCCA	0.057
AAACCCAT	0.155
CACTAAGC	0.0171
AGCTTGAT	-0.0451
ATAGCAAG	0.111
GCGTCAAC	0.335
CTTAAGAC	-0.0871
CCGCGTAA	0.111
ATGCGCTA	-0.046
TAGTCAAA	0.189
CATTGAGC	-0.0513
CGATCTTA	0.0184
CGAAGAGC	-0.132
ACGGTCCT	-0.274
TTACGGAA	0.178

Sequence	PBM E-score
CGCGCGAG	0.0316
AGAACAAA	0.34
CAGCTAGC	-0.104
AAAGTGGG	0.0266
AATTATAT	0.188
AATGGACT	-0.156
CTGACTGA	-0.149
TTTAGAAA	0.189
CGATCTCC	-0.127
CGGTTTAC	-0.0976
AGTCCTGA	-0.0814
GCTCTATA	-0.114
ACACCAGA	0.115
AAACGTTA	0.0758
CCAAGGGC	-0.271
CGGAACCG	-0.127
CGTAACCA	0.24
CCTTCCCC	-0.132
CGCATGTC	0.215
GATACATA	0.117
CACGAGAG	-0.144
AATGGGAT	-0.17
GACCTGAA	-0.127
CTAATCTC	0.0468
TCAGCTAA	0.0376

Sequence	PBM E-score
AATGGGAG	-0.0589
ACGTTGTG	0.0103
CGGCGACA	0.0179
GAGAAATC	0.0872
ACGTCTCC	0.0103
GACTCCGA	-0.105
CCAAACGC	-0.0355
TGGGTAAA	-0.164
TAAAAACA	0.231
GCACAGCC	-0.125
ACCCGATG	-0.0718
GCCGACAA	-0.0103
ATCTTTGA	0.0793
CTTCAGCA	-0.0118
AAGACTAG	-0.266
GTCTTGAA	-0.0497
AAGCCCGT	-0.275
GATCATGC	-0.137
CTAGGGTA	-0.316
ACCTCGAC	-0.0173
GTTCCAAA	0.0735
AATAGCAG	-0.162
AATCGGTG	0.00732
ATTCTATC	0.198
AGGACACC	-0.0829

Sequence	PBM E-score
GGCATATA	0.184
ACCGCTGA	0.0445
AATAAACA	0.208
AGGTGGGA	-0.228
AGCCCACC	-0.257
GGGAAAAA	0.0634
ACATTGAT	0.181
AGTTGCCC	-0.202
AAGGCAAG	-0.00658
AGGAAGTC	-0.206
AAGTCAGT	0.0407
AGTAATGA	0.247
CGCGCCTC	0.0846
GCCCGACC	-0.276
AGTAGATA	0.233
CGAGGAGA	-0.295
ACAGCGCG	-0.0283
ATCTGTGC	0.053
CGGATTCC	-0.15
AGGTAACC	-0.0846
ACACCAAA	0.212
GCTGGAAC	-0.184
GCACGTGC	0.16
CGTCACGC	0.441
AAAACAAA	0.237

Sequence	PBM E-score
GCATTTAC	0.0548
AATAGTTG	0.0973
CCCGATCC	-0.322
CAGAGGTC	-0.226
GAGGGCGA	-0.338
CTGATTCC	-0.0906
AAGCACGA	0.0616
CACGCCAC	-0.00611
CTTTGGGA	-0.148
CTGTACAG	-0.083
AGGATCCT	-0.0938
CCCCACAA	0.00463
ACATTACG	0.246
ATGCTTGC	-0.0644
CGAAGCTA	0.0133
GCAACAAA	0.197
CCGACAGA	-0.0857
CGCCTCTA	0.0912
AGAGTGAA	0.057
ACGACCAC	0.0611
AGAGGCGC	0.0173
GGCTAGAA	-0.0974
ACGCCCCT	-0.183
CTAACAAG	0.036
ACGTTCCT	-0.016

Sequence	PBM E-score
GGAATACA	-0.0611
ACCAAGAG	-0.0362
CGGCGCCC	0.143
GAGCTCAA	0.0144
ATCGGGGA	-0.274
AGCGGATA	-0.265
CGGCTCTC	-0.00463
GAGGTTCA	0.104
ACAACAGA	0.0382
CGTACTTC	0.0787
ATAGGCAG	0.0943
ACATATCG	0.0617
TACCCGAA	-0.133
CGCACCTA	-0.0259
AAACCGAT	-0.0766
CAGCGGCC	-0.259
CGTTATAG	0.0827
ATGTGGTG	0.151
GCGGCTCA	0.266
CATTTCTC	0.152
TGAGAAAA	0.154
GCACTGCC	0.0838
AACCCCCA	-0.377
AAGGGGCG	-0.284
AAGACCAA	-0.0345

Sequence	PBM E-score
GCGCTTCA	0.00479
GAGACTGC	-0.142
AAACTATG	0.0424
ACGTTAAA	0.195
CCCTGCGC	-0.153
TCGTGTCA	0.0699
ACTGATTA	0.165
CGTTAAAG	0.0934
CGTGCTTC	0.0879
CCACGTAG	-0.186
ATCACCCC	0.0738
AACTTATC	0.0146
GCGCGTCC	-0.198
AGCCCAGA	-0.209
CCTAGCCG	-0.0555
CTAAAAAC	-0.0449
CCGCTCCC	-0.329
AGACTCAC	-0.217
ATAAGTAT	-0.042
CTTCGTTA	0.11
CAGGTTAG	-0.116
ATATCTAG	0.028
AGGGTTTA	-0.00187
TCTTTAAA	0.188
ATTGAGGG	-0.186

Sequence	PBM E-score
CAGCGCCA	-0.174
CAATTATC	0.191
GTAGCGAA	-0.0567
ATTCGCCG	0.188
CGCGTAAG	0.179
CGACACCA	-0.0683
AAGTGCGG	0.116
CCATTGTC	-0.104
ATTGGGGG	-0.287
AGCCGTAG	0.0859
ACATGTTC	-0.138
GCCAGTAA	-0.144
ACAATAGA	0.139
CGCACTCA	0.053
CGATAGAG	-0.123
ATTCCAAA	0.118
TGACCACA	0.00133
GGCCGGCA	-0.06
AAACATAG	-0.0796
ACTTCTAG	-0.206
CTCCCACC	-0.335
CGTCAGGC	0.212
GAGGCCGA	-0.124
GCGTACGA	0.122
TAATAGGA	0.149

Sequence	PBM E-score
CGTCTAGA	-0.17
ACTTTATG	0.174
GATGCCAA	0.0684
CGTGCTCA	-0.00224
CCACGACG	0.00619
CGGCCGCC	-0.0119
AATTGTGC	0.201
CCTATCGA	-0.109
TAGCATAA	0.015
CACAATAG	-0.0192
GGCCGGAA	-0.275
AACGTCGA	0.133
CAAACGTG	0.0882
ACATATGG	0.0745
GGCGCAGA	0.0181
CTACAACC	-0.013
ACGGTAGC	-0.0866
CTCGCTTC	-0.238
ACTGGAAG	-0.153
GCCTAAGC	-0.194
GAACGCCC	-0.202
AATTTGGC	0.0196
ACGAGCGC	-0.105
AATTACGT	0.462
ATGTGATA	0.261

Sequence	PBM E-score
ATCCCCCA	-0.429
CAGCTCTC	-0.172
CAGCAGTA	-0.0384
GCATTACC	-0.088
TAGGACTA	-0.0879
AAATCTTG	0.203
AAGACGGG	-0.176
GACCGTAA	0.0286
AGACGGAC	0.0277
ACTAGCCT	-0.0938
ACCAGGAA	-0.176
ACACCCCT	-0.171
AACCTGGT	-0.128
ACCAACAG	-0.104
ACCCCGCC	-0.0543
CCCGCCCA	0.0519
CAATCTGA	0.0175
CAGCTCAC	-0.129
CTTTGTCC	-0.0809
ACGTTAGT	0.239
CCCCTTCA	-0.248
TCAGCACA	0.171
ACGGATGA	0.0946
ATCCAGAT	-0.0912
GTTCGGAA	-0.0377

Sequence	PBM E-score
GGCTAGGA	-0.159
AATCCGCC	-0.259
AAATGCTT	-0.00158
CCGATCGG	0.0601
CTCCATGC	-0.125
AGGGTGTG	-0.146
GAGTCGGC	-0.234
CGTCAGAA	0.286
CTCTTTCA	0.0197
ACCTTCGT	-0.0927
AGTGGCGC	0.00481
GCGTACCA	-0.0573
GGCAGACC	-0.318
GTTCTGAA	0.143
CGGAGCGC	-0.159
TAGGCTCA	-0.14
CAGCACCA	-0.308
GGTCCGGA	-0.177
CGATGTTC	-0.222
